Counter-ions that a name gives are not always drawn. This is one part of the list. The data scatter; read single values as rough. Residues, ends and D or L forms follow the SMILES beside them.
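Note: High-content imaging of ALDEFLUOR-stained cells with Hoechst-labelled nuclei in 384-well plates, triplicate wells, scored as Z-score against 0.1% DMSO vehicle, negative meaning fewer ALDHbr cells.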

This experiment relates to T84. In words: ALDHbr (CSC) cell proportion score relative to DMSO vehicle (ratio to DMSO); breast (SUM159) / gastric (MKN45) / pancreatic (PANC1) / colon cancer lines; ALDHbr cells have high ALDH activity and are rich in cancer stem cells (CSC); higher = more CSC (ALDHbr) cells remaining. Particulars: 10 µM; 72 h.
For `CC[C@H]1OC(=O)[C@H](C)[C@@H](O[C@H]2C[C@@](C)(OC)[C@@H](O)[C@H](C)O2)[C@H](C)[C@@H](O[C@@H]2O[C@H](C)C[C@H](N(C)C)[C@H]2O)[C@](C)(OC)C[C@@H](C)C(=O)[C@H](C)[C@@H](O)[C@]1(C)O` [Clarithromycin], the ALDHbr amounted to 0.993.

For `CC(=O)N[C@@H](CS)C(=O)O` [Acetylcysteine], the ALDHbr was 0.901.

Turning to `CO/N=C1\CN(c2nc3c(cc2F)c(=O)c(C(=O)O)cn3C2CC2)CC1CN` (stereo not given) [Gemifloxacin mesylate], the ALDHbr was determined as 0.948.

As for `Cc1c(O)c(=O)n(-c2ccccc2)n1C` [Antipyrine, 4-hydroxy], the ALDHbr is 0.756.

With `O=C1[C@H](CC[C@H](O)c2ccc(F)cc2)[C@@H](c2ccc(O)cc2)N1c1ccc(F)cc1` [Ezetimibe], the ALDHbr stood at 0.973.

As for `CC(C)(O/N=C(\C(=O)N[C@@H]1C(=O)N2C(C(=O)[O-])=C(C[n+]3ccccc3)CS[C@H]12)c1csc(N)n1)C(=O)O` [Ceftazidime pentahydrate], the ALDHbr was found to be 1.02.

Take `CN(C(=O)C(Cl)Cl)c1ccc(OC(=O)c2ccco2)cc1` [Diloxanide furoate]: the ALDHbr turned out to be 0.522.

With `CC(C(=O)O)c1cccc(Oc2ccccc2)c1` (stereo not given) [Fenoprofen calcium salt dihydrate], the ALDHbr was 1.01.

As for `CCOC(=O)C1=C(C)NC(C)=C(C(=O)OC)C1c1cccc([N+](=O)[O-])c1` (stereo not given) [Nitrendipine], the ALDHbr was 1.05.

Turning to `NS(=O)(=O)c1cc(Cl)c(Cl)c(S(N)(=O)=O)c1` [Dichlorphenamide], the ALDHbr amounted to 0.953.

For `CO[C@H]1C[C@H](O[C@H]2[C@H](C)[C@@H](O[C@@H]3O[C@H](C)C[C@H](N(C)C)[C@H]3OC(C)=O)[C@@H](C)C[C@@]3(CO3)C(=O)[C@H](C)[C@@H](OC(C)=O)[C@@H](C)[C@@H](C)OC(=O)[C@@H]2C)O[C@@H](C)[C@@H]1OC(C)=O` [Troleandomycin], the ALDHbr turned out to be 0.825.

For `CC1Cc2ccccc2N1NC(=O)c1ccc(Cl)c(S(N)(=O)=O)c1` (stereo not given) [Indapamide], the ALDHbr worked out at 1.1.

Consider `CCCN(CCC)C(=O)C(CCC(=O)O)NC(=O)c1ccccc1` (stereo not given) [Proglumide], for which the ALDHbr is 0.847.

Take `CN[C@H]1CC[C@@H](c2ccc(Cl)c(Cl)c2)c2ccccc21` [Sertraline]: the ALDHbr stood at 0.318.

With `CCCCNc1cc(C(=O)O)cc(S(N)(=O)=O)c1Oc1ccccc1` [Bumetanide], the ALDHbr turned out to be 0.971.

For `CC(COc1ccccc1)N(CCCl)Cc1ccccc1` (stereo not given) [Phenoxybenzamine hydrochloride], the ALDHbr was 1.16.

Regarding `Cc1c(N(C)CS(=O)(=O)O)c(=O)n(-c2ccccc2)n1C` [Dipyrone], the ALDHbr was found to be 0.917.

`COc1ccc2cc(CCC(C)=O)ccc2c1` [Nabumetone]: the ALDHbr came out at 0.92.

Take `O=C1CC2(CCCC2)CC(=O)N1CCCCN1CCN(c2ncccn2)CC1` [Buspirone hydrochloride]: the ALDHbr stood at 0.834.

As to `Cc1c(-c2ccccc2)oc2c(C(=O)OCCN3CCCCC3)cccc2c1=O` [Flavoxate hydrochloride], the ALDHbr turned out to be 1.21.

With `O=C(Oc1cccc2cccnc12)c1ccccc1` [Benzoxiquine], the ALDHbr turned out to be 0.329.

On to `CNCCC(Oc1ccc(C(F)(F)F)cc1)c1ccccc1` (stereo not given) [Fluoxetine hydrochloride], for which the ALDHbr came out at 0.438.

As for `C[C@]12C=CC(=O)C=C1CC[C@H]1[C@@H]3C[C@@H](O)[C@](O)(C(=O)CO)[C@@]3(C)C[C@H](O)[C@@]12F` [Triamcinolone], the ALDHbr was found to be 0.801.

Take `CC(=O)[C@H]1CC[C@H]2[C@@H]3C=CC4=CC(=O)CC[C@@]4(C)[C@@H]3CC[C@]12C` [Dydrogesterone]: the ALDHbr was 0.921.

Turning to `CC(C)Cc1ccc([C@H](C)C(=O)O)cc1` [S-(+)-ibuprofen], the ALDHbr came out at 1.01.

As for `CCCNC(C)C(=O)Nc1c(C)csc1C(=O)OC` (stereo not given) [Articaine hydrochloride], the ALDHbr is 1.11.

For `CN1CCCC(CC2c3ccccc3Sc3ccccc32)C1` (stereo not given) [Metixene hydrochloride], the ALDHbr turned out to be 0.329.

With `COc1ccccc1N1CCN(CC(O)COc2cccc3ccccc23)CC1` (stereo not given) [Naftopidil dihydrochloride], the ALDHbr amounted to 0.8.

`CC(=O)N(CC(O)CN(C(C)=O)c1c(I)c(C(=O)NCC(O)CO)c(I)c(C(=O)NCC(O)CO)c1I)c1c(I)c(C(=O)NCC(O)CO)c(I)c(C(=O)NCC(O)CO)c1I` (stereo not given) [Iodixanol]: the ALDHbr was found to be 0.914.

As for `CC(C)NC[C@@H](O)COc1ccc(CC(N)=O)cc1` [(R)-(+)-Atenolol], the ALDHbr amounted to 0.949.

On to `O=C(CCCN1CCN(c2ccccn2)CC1)c1ccc(F)cc1` [Azaperone], for which the ALDHbr was found to be 1.13.

`CC(=O)[C@@]1(O)CC[C@H]2[C@@H]3C[C@H](C)C4=CC(=O)C=C[C@]4(C)[C@@]3(F)[C@@H](O)C[C@@]21C` [Fluorometholone]: the ALDHbr was determined as 0.852.

With `CC(=O)N(O)CCCCCNC(=O)CCC(=O)N(O)CCCCCNC(=O)CCC(=O)N(O)CCCCCN` [Deferoxamine mesylate], the ALDHbr is 0.726.

Regarding `COc1ccc2c(c1)C(=O)N(CCc1ccc(S(=O)(=O)NC(=O)NC3CCCCC3)cc1)C(=O)C2(C)C` [Gliquidone], the ALDHbr is 0.972.

On to `CCOC(=O)C1=C(C)NC(C)=C(C(=O)OCC)C1c1ccccc1/C=C/C(=O)OC(C)(C)C` [Lacidipine], for which the ALDHbr was 0.714.

As to `CCCCC[C@H](O)/C=C/[C@H]1[C@H](O)CC(=O)[C@@H]1CCCCCCC(=O)O` [Alprostadil], the ALDHbr worked out at 0.801.

Consider `NC[C@@H]1O[C@@H](O[C@H]2[C@H](O)[C@@H](O[C@H]3O[C@H](CO)[C@@H](O)[C@H](N)[C@H]3O)[C@H](N)C[C@@H]2N)[C@@H](O)[C@H](O)[C@H]1O` [Kanamycin A sulfate], for which the ALDHbr stood at 1.05.

`O=C1CC[C@@H](C(=O)N2CSC[C@H]2C(=O)O)N1` [Pidotimod] (HELM PEPTIDE1{[Glp].[O=C(O)[C@@H]1CSCN1[*:1]]}$$$$V2.0): the ALDHbr is 1.12.

Turning to `CCCCC1C(=O)N(c2ccccc2)N(c2ccc(O)cc2)C1=O` (stereo not given) [Oxyphenbutazone], the ALDHbr turned out to be 1.12.

For the compound `CN(C)CCN1C(=O)c2ccccc2N(C)c2ccccc21` [Dibenzepine hydrochloride], the ALDHbr came to 1.05.

These data come from the supplement of paper PMC11880418.
